In US7144862B2, “Orally administered peptides to ameliorate atherosclerosis” (The Regents of the University of California, priority 2000, dated 2006):
Non-standard residues stand in square brackets, D forms with d. Residues, ends and D or L forms follow the SMILES beside them.

Test system: human artery wall cell cocultures
Test: Lipoproteins from mice given peptide by gavage tested in human artery wall cell cocultures (monocyte chemotactic activity)
Conditions: 50 micrograms by gavage
Protocol: Groups of LDL receptor-deficient mice (n=3) were administered the D-peptides or the saline vehicle by gavage. Each animal was given 100 μl of saline, 100 μg/100 μl of peptide D-2F or peptide D-37pA. Blood was collected from retroorbital sinus under mild anesthesia 17 hrs later. LDL was isolated from plasma by FPLC. Cocultures of artery wall cells were incubated with medium alone (NO ADDITION), control LDL from normal subjects (LDL), LDL plus control HDL from normal subjects (+HDL). Other cocultures were incubated with murine LDL following gavage with saline (SALINE LDL), with D-2F (D-2F LDL) or with D-37pA peptide (D-37pA LDL). […] This conditioned medium was collected and analyzed for monocyte chemotactic activity. […]
FIG. 22A: Peptides L-4F and D-4F were radiolabeled using the Iodo-bead reagent and were administered by oral gavage to LDL receptor null mice (100 μl of saline containing 100 μg of unlabeled peptide plus ^125I-labeled peptide with specific activity of 11×10^6 cpm per μg peptide per animal, n=3). Blood was collected after 4 hrs, plasma was separated, delipidated and analyzed by reverse phase HPLC as described herein. […] On the right, mouse LDL (mLDL) was isolated from mice receiving saline (Saline Rx) or L-4F (L4F Rx) or D-4F (D-4F Rx) and was added at 100 μg cholesterol/ml to the artery wall cell cocultures without HDL and monocyte chemotactic activity determined. […]

Structure (SMILES): CC(=O)N[C@H](CC(=O)O)C(=O)N[C@H](Cc1c[nH]c2ccccc12)C(=O)N[C@H](CC(C)C)C(=O)N[C@H](CCCCN)C(=O)N[C@H](C)C(=O)N[C@H](Cc1ccccc1)C(=O)N[C@H](Cc1ccc(O)cc1)C(=O)N[C@H](CC(=O)O)C(=O)N[C@H](CCCCN)C(=O)N[C@@H](C(=O)N[C@H](Cc1ccccc1)C(=O)N[C@H](CCC(=O)O)C(=O)N[C@H](CCCCN)C(=O)N[C@H](Cc1ccccc1)C(=O)N[C@H](CCCCN)C(=O)N[C@H](CCC(=O)O)C(=O)N[C@H](Cc1ccccc1)C(=O)N[C@H](Cc1ccccc1)C(N)=O)C(C)C [Peptide D-5F, Ac-D-W-L-K-A-F-Y-D-K-V-F-E-K-F-K-E-F-F-NH2] (Ac-[dD][dW][dL][dK][dA][dF][dY][dD][dK][dV][dF][dE][dK][dF][dK][dE][dF][dF]-NH2)
- protection of control LDL by mouse HDL (HDL taken after 3 hours): as protective against LDL-induced monocyte chemotactic activity production by human artery wall cells as a control HDL
- protection of control LDL by mouse HDL (LDL receptor knockout mice, HDL taken 1.5 hours after gavage): did not protect control (cont.) LDL from modification
